The list shows a part of the results. Rule as the data show it: active = 3.2 or more and inactive = the rest. The signal is at background level for most entries.
The binders below were run against SHP2 C-SH2 domain E139D (assay: enrichment score (SH2-bound / input frequency) (ratio); bacterial display of known human phosphotyrosine sites (pTyr-Var adds point mutants) read by sequencing; higher = stronger binding; tyrosines were phosphorylated by kinases first). Conditions: peptide library: Human pTyr.
KNTYDVVYLKVAKPS [DLG4_HUMAN_240] was tested, and the enrichment score was inactive: 0.815. In the case of KKVLNHGYDDDNHDY [DYR1B_HUMAN_92], the enrichment score is reported as inactive: 0.694. For FGQVVKAYDRVEQEW [DYR1A_HUMAN_177], the enrichment score was inactive: 0.644. KHDTEMKYYIVHLKR [DYR1A_HUMAN_219] was tested, and the enrichment score was inactive: 3.08. With SGHTVADYLKFKDLI [DYR1A_HUMAN_449] the enrichment score was inactive: 1.24. YKHINEVYYAKKKRR [DYR1A_HUMAN_111] was tested, and the enrichment score was inactive: 0.854. With KKSRPAMYDVSPIAY [DNER_HUMAN_711] the enrichment score was inactive: 1.66. EYQKLYTYIQSRFYR [DYRK3_HUMAN_369] was tested, and the enrichment score was active: 3.27. In the case of SGDQIDTYELSGGAR [DYN1_HUMAN_354], the enrichment score is reported as inactive: 0.652. In the case of GERWLERYEIDSLIG [DYR1B_HUMAN_111], the enrichment score is reported as inactive: 0.798. DGADDDNYDAIVKNG [DYR1A_HUMAN_145_YA] was tested, and the enrichment score was inactive: 1.01. VNDDQSFYADIYMED [DPYL2_HUMAN_32] was tested, and the enrichment score was inactive: 1.28. For AKHINEVYAAKKKRR [DYR1A_HUMAN_111_YA], the enrichment score was inactive: 1.83. STSGESLYHVLGLDK [DNJC5_HUMAN_17] was tested, and the enrichment score was inactive: 1.47. ARVKEEGYELPANPA [DOK1_HUMAN_398_YA] was tested, and the enrichment score was inactive: 0.783. In the case of RHYNGEAYEDDEHHP [DNJA1_HUMAN_381], the enrichment score is reported as inactive: 1.88. In the case of EHQKVATYIQSRFAR [DYRK4_HUMAN_264_YA], the enrichment score is reported as inactive: 1.69. For KPLYWDLYEHAQQQL [DOK1_HUMAN_341], the enrichment score was inactive: 1.52. GQANDNLYGTSVQSV [DLG2_HUMAN_755_YA] was tested, and the enrichment score was inactive: 0.612.

Each binder was assayed against SHP2 C-SH2 domain wild-type in the same assay as above. Conditions: peptide library: Human pTyr.
In the case of KNTYDVVYLKVAKPS [DLG4_HUMAN_240], the enrichment score is reported as inactive: 0.804. In the case of KKVLNHGYDDDNHDY [DYR1B_HUMAN_92], the enrichment score is reported as inactive: 0.88. For FGQVVKAYDRVEQEW [DYR1A_HUMAN_177], the enrichment score was inactive: 0.711. KHDTEMKYYIVHLKR [DYR1A_HUMAN_219] was tested, and the enrichment score was active: 3.33. With SGHTVADYLKFKDLI [DYR1A_HUMAN_449] the enrichment score was inactive: 1.02. With YKHINEVYYAKKKRR [DYR1A_HUMAN_111] the enrichment score was inactive: 0.912. In the case of KKSRPAMYDVSPIAY [DNER_HUMAN_711], the enrichment score is reported as inactive: 1.75. With EYQKLYTYIQSRFYR [DYRK3_HUMAN_369] the enrichment score was active: 4.34. With SGDQIDTYELSGGAR [DYN1_HUMAN_354] the enrichment score was inactive: 0.474. GERWLERYEIDSLIG [DYR1B_HUMAN_111] was tested, and the enrichment score was inactive: 0.78. DGADDDNYDAIVKNG [DYR1A_HUMAN_145_YA] was tested, and the enrichment score was inactive: 0.909. For VNDDQSFYADIYMED [DPYL2_HUMAN_32], the enrichment score was inactive: 1.49. For AKHINEVYAAKKKRR [DYR1A_HUMAN_111_YA], the enrichment score was inactive: 1.27. In the case of STSGESLYHVLGLDK [DNJC5_HUMAN_17], the enrichment score is reported as inactive: 1.47. In the case of ARVKEEGYELPANPA [DOK1_HUMAN_398_YA], the enrichment score is reported as inactive: 0.575. For RHYNGEAYEDDEHHP [DNJA1_HUMAN_381], the enrichment score was inactive: 0.42. For EHQKVATYIQSRFAR [DYRK4_HUMAN_264_YA], the enrichment score was inactive: 1.55. KPLYWDLYEHAQQQL [DOK1_HUMAN_341] was tested, and the enrichment score was inactive: 1.73. For GQANDNLYGTSVQSV [DLG2_HUMAN_755_YA], the enrichment score was inactive: 0.535.

Each binder was assayed against SHP2 N-SH2 domain L43F in the same assay as above. Conditions: peptide library: Human pTyr.
For KNTYDVVYLKVAKPS [DLG4_HUMAN_240], the enrichment score was inactive: 0.685. KKVLNHGYDDDNHDY [DYR1B_HUMAN_92] was tested, and the enrichment score was inactive: 1.01. With FGQVVKAYDRVEQEW [DYR1A_HUMAN_177] the enrichment score was inactive: 0.656. With KHDTEMKYYIVHLKR [DYR1A_HUMAN_219] the enrichment score was inactive: 2.71. In the case of SGHTVADYLKFKDLI [DYR1A_HUMAN_449], the enrichment score is reported as inactive: 1.12. With YKHINEVYYAKKKRR [DYR1A_HUMAN_111] the enrichment score was inactive: 0.831. For KKSRPAMYDVSPIAY [DNER_HUMAN_711], the enrichment score was inactive: 1.42. EYQKLYTYIQSRFYR [DYRK3_HUMAN_369] was tested, and the enrichment score was inactive: 2.95. For SGDQIDTYELSGGAR [DYN1_HUMAN_354], the enrichment score was inactive: 0.606. With GERWLERYEIDSLIG [DYR1B_HUMAN_111] the enrichment score was inactive: 0.817. DGADDDNYDAIVKNG [DYR1A_HUMAN_145_YA] was tested, and the enrichment score was inactive: 1.02. With VNDDQSFYADIYMED [DPYL2_HUMAN_32] the enrichment score was inactive: 1.43. For AKHINEVYAAKKKRR [DYR1A_HUMAN_111_YA], the enrichment score was inactive: 1.29. In the case of STSGESLYHVLGLDK [DNJC5_HUMAN_17], the enrichment score is reported as inactive: 1.6. In the case of ARVKEEGYELPANPA [DOK1_HUMAN_398_YA], the enrichment score is reported as inactive: 0.898. RHYNGEAYEDDEHHP [DNJA1_HUMAN_381] was tested, and the enrichment score was inactive: 1.45. EHQKVATYIQSRFAR [DYRK4_HUMAN_264_YA] was tested, and the enrichment score was inactive: 1.91. In the case of KPLYWDLYEHAQQQL [DOK1_HUMAN_341], the enrichment score is reported as inactive: 1.65. In the case of GQANDNLYGTSVQSV [DLG2_HUMAN_755_YA], the enrichment score is reported as inactive: 0.52.

What follows are binders tested against SHP2 N-SH2 domain T42A in the same assay as above. Conditions: peptide library: Human pTyr.
For KNTYDVVYLKVAKPS [DLG4_HUMAN_240], the enrichment score was inactive: 0.771. KKVLNHGYDDDNHDY [DYR1B_HUMAN_92] was tested, and the enrichment score was inactive: 0.989. With FGQVVKAYDRVEQEW [DYR1A_HUMAN_177] the enrichment score was inactive: 0.67. KHDTEMKYYIVHLKR [DYR1A_HUMAN_219] was tested, and the enrichment score was inactive: 2.58. For SGHTVADYLKFKDLI [DYR1A_HUMAN_449], the enrichment score was inactive: 1.09. YKHINEVYYAKKKRR [DYR1A_HUMAN_111] was tested, and the enrichment score was inactive: 0.721. In the case of KKSRPAMYDVSPIAY [DNER_HUMAN_711], the enrichment score is reported as inactive: 1.64. With EYQKLYTYIQSRFYR [DYRK3_HUMAN_369] the enrichment score was inactive: 2.3. In the case of SGDQIDTYELSGGAR [DYN1_HUMAN_354], the enrichment score is reported as inactive: 0.472. GERWLERYEIDSLIG [DYR1B_HUMAN_111] was tested, and the enrichment score was inactive: 0.796. In the case of DGADDDNYDAIVKNG [DYR1A_HUMAN_145_YA], the enrichment score is reported as inactive: 0.949. In the case of VNDDQSFYADIYMED [DPYL2_HUMAN_32], the enrichment score is reported as inactive: 1.21. AKHINEVYAAKKKRR [DYR1A_HUMAN_111_YA] was tested, and the enrichment score was inactive: 1.34. For STSGESLYHVLGLDK [DNJC5_HUMAN_17], the enrichment score was inactive: 1.48. ARVKEEGYELPANPA [DOK1_HUMAN_398_YA] was tested, and the enrichment score was inactive: 0.62. With RHYNGEAYEDDEHHP [DNJA1_HUMAN_381] the enrichment score was inactive: 0.109. In the case of EHQKVATYIQSRFAR [DYRK4_HUMAN_264_YA], the enrichment score is reported as inactive: 1.77. For KPLYWDLYEHAQQQL [DOK1_HUMAN_341], the enrichment score was inactive: 1.76. GQANDNLYGTSVQSV [DLG2_HUMAN_755_YA] was tested, and the enrichment score was inactive: 0.501.

The binders below were run against SHP2 N-SH2 domain T52S in the same assay as above. Conditions: peptide library: Human pTyr.
With KNTYDVVYLKVAKPS [DLG4_HUMAN_240] the enrichment score was inactive: 0.891. In the case of KKVLNHGYDDDNHDY [DYR1B_HUMAN_92], the enrichment score is reported as inactive: 0.685. For FGQVVKAYDRVEQEW [DYR1A_HUMAN_177], the enrichment score was inactive: 0.772. With KHDTEMKYYIVHLKR [DYR1A_HUMAN_219] the enrichment score was active: 3.37. SGHTVADYLKFKDLI [DYR1A_HUMAN_449] was tested, and the enrichment score was inactive: 1.17. For YKHINEVYYAKKKRR [DYR1A_HUMAN_111], the enrichment score was inactive: 0.705. KKSRPAMYDVSPIAY [DNER_HUMAN_711] was tested, and the enrichment score was inactive: 1.58. EYQKLYTYIQSRFYR [DYRK3_HUMAN_369] was tested, and the enrichment score was active: 4.09. In the case of SGDQIDTYELSGGAR [DYN1_HUMAN_354], the enrichment score is reported as inactive: 0.605. GERWLERYEIDSLIG [DYR1B_HUMAN_111] was tested, and the enrichment score was inactive: 0.748. For DGADDDNYDAIVKNG [DYR1A_HUMAN_145_YA], the enrichment score was inactive: 1.17. For VNDDQSFYADIYMED [DPYL2_HUMAN_32], the enrichment score was inactive: 1.42. In the case of AKHINEVYAAKKKRR [DYR1A_HUMAN_111_YA], the enrichment score is reported as inactive: 1.15. In the case of STSGESLYHVLGLDK [DNJC5_HUMAN_17], the enrichment score is reported as inactive: 1.57. ARVKEEGYELPANPA [DOK1_HUMAN_398_YA] was tested, and the enrichment score was inactive: 0.77. For EHQKVATYIQSRFAR [DYRK4_HUMAN_264_YA], the enrichment score was inactive: 1.71. In the case of KPLYWDLYEHAQQQL [DOK1_HUMAN_341], the enrichment score is reported as inactive: 1.62. For GQANDNLYGTSVQSV [DLG2_HUMAN_755_YA], the enrichment score was inactive: 0.53.

Each binder was assayed against SHP2 N-SH2 domain wild-type in the same assay as above. Conditions: peptide library: Human pTyr.
For KNTYDVVYLKVAKPS [DLG4_HUMAN_240], the enrichment score was inactive: 0.644. In the case of KKVLNHGYDDDNHDY [DYR1B_HUMAN_92], the enrichment score is reported as inactive: 0.756. FGQVVKAYDRVEQEW [DYR1A_HUMAN_177] was tested, and the enrichment score was inactive: 0.977. KHDTEMKYYIVHLKR [DYR1A_HUMAN_219] was tested, and the enrichment score was active: 4.03. For SGHTVADYLKFKDLI [DYR1A_HUMAN_449], the enrichment score was inactive: 1.46. For YKHINEVYYAKKKRR [DYR1A_HUMAN_111], the enrichment score was inactive: 1.08. With KKSRPAMYDVSPIAY [DNER_HUMAN_711] the enrichment score was inactive: 2.55. In the case of EYQKLYTYIQSRFYR [DYRK3_HUMAN_369], the enrichment score is reported as active: 3.71. With SGDQIDTYELSGGAR [DYN1_HUMAN_354] the enrichment score was inactive: 0.655. With GERWLERYEIDSLIG [DYR1B_HUMAN_111] the enrichment score was inactive: 0.668. In the case of DGADDDNYDAIVKNG [DYR1A_HUMAN_145_YA], the enrichment score is reported as inactive: 1.15. For VNDDQSFYADIYMED [DPYL2_HUMAN_32], the enrichment score was inactive: 1.43. In the case of AKHINEVYAAKKKRR [DYR1A_HUMAN_111_YA], the enrichment score is reported as inactive: 1.26. For STSGESLYHVLGLDK [DNJC5_HUMAN_17], the enrichment score was inactive: 1.9. ARVKEEGYELPANPA [DOK1_HUMAN_398_YA] was tested, and the enrichment score was inactive: 0.745. RHYNGEAYEDDEHHP [DNJA1_HUMAN_381] was tested, and the enrichment score was inactive: 0.535. With EHQKVATYIQSRFAR [DYRK4_HUMAN_264_YA] the enrichment score was inactive: 2.04. With KPLYWDLYEHAQQQL [DOK1_HUMAN_341] the enrichment score was inactive: 1.86. In the case of GQANDNLYGTSVQSV [DLG2_HUMAN_755_YA], the enrichment score is reported as inactive: 0.561.
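Also: displayed peptides selected on beads carrying the immobilized SH2 domain, with library peptides lacking any tyrosine serving as negative controls.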
